# US12247058 (Bristol-Myers Squibb, dated 2025)
# T1: human β-klotho, stably co-expressed with the Elk1-luciferase trans-reporter in HEK293 cells (HEK Luc Clone2) (human, UniProt Q86Z14 1-1044)
# T1 sequence: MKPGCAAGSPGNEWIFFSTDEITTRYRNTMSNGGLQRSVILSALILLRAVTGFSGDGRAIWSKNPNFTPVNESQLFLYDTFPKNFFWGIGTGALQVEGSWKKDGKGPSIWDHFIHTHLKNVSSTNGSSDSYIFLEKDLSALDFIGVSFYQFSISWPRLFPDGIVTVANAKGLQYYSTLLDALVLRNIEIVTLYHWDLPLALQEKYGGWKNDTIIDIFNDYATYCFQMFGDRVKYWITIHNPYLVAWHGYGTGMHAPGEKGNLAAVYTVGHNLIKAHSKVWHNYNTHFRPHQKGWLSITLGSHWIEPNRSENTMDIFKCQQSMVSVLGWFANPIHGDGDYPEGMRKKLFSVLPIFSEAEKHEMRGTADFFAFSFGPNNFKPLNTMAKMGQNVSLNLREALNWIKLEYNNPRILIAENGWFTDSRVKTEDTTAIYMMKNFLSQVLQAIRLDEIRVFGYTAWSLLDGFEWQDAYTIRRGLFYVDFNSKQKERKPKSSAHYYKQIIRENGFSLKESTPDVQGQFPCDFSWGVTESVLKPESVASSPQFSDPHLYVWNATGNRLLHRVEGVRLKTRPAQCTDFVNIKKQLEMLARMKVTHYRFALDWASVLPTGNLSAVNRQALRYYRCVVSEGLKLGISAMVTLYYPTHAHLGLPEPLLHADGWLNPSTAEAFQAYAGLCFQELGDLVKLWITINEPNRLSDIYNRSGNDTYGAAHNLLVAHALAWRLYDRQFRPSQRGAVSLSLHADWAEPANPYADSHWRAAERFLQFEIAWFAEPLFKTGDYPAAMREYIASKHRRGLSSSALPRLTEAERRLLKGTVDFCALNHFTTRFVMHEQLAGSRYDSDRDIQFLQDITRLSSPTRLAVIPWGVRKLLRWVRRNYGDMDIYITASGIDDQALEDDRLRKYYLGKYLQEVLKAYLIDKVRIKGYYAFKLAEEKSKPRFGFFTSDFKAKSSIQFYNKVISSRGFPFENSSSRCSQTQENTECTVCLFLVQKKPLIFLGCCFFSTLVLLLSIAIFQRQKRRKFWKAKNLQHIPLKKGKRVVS
# B1: Compound 178 [Fc(hIgGla_189)-L6-FGF21(Cmp. 2)] (Fc fusion)
# chain: [omitted - human IgG1 Fc]GGSGGGGSGGGGSHPIPDSSPLLQFGGQVRQRYLYTDDAQQTEAHLEIREDGTVGGAADQSPESLLQLKALKPGVIQILGVKTSRFLCQRPDGALYGSLHFDPEACSFRELLLEDGYNVYQSEAHGLPLHLGSGRGPARFLPLPGLPPAPPEPPGILAPQPPDVGSSDPLSMVEPSQGRSPSYAS
# B2: Compound 174 [Fc(hIgG1a_191)-L5-FGF21(Cmp. 2)] (Fc fusion)
# chain: [omitted - human IgG1 Fc]GSHHHHHHHHGSHPIPDSSPLLQFGGQVRQRYLYTDDAQQTEAHLEIREDGTVGGAADQSPESLLQLKALKPGVIQILGVKTSRFLCQRPDGALYGSLHFDPEACSFRELLLEDGYNVYQSEAHGLPLHLGSGRGPARFLPLPGLPPAPPEPPGILAPQPPDVGSSDPLSMVEPSQGRSPSYAS
# B3: Compound 180 [Fc(hIgGla_191)-L7-FGF21-3aa(Cmp. 2 with the three C-terminal amino acids deleted)] (Fc fusion)
# chain: [omitted - human IgG1 Fc]GGGGGSGGGSGGGGSHPIPDSSPLLQFGGQVRQRYLYTDDAQQTEAHLEIREDGTVGGAADQSPESLLQLKALKPGVIQILGVKTSRFLCQRPDGALYGSLHFDPEACSFRELLLEDGYNVYQSEAHGLPLHLGSGRGPARFLPLPGLPPAPPEPPGILAPQPPDVGSSDPLSMVEPSQGRSPS
# B4: Compound 179 [Fc(hIgG1a_191)-L7-FGF21-1aa(Cmp. 2 with the C-terminal amino acid deleted)] (Fc fusion)
# chain: [omitted - human IgG1 Fc]GGGGGSGGGSGGGGSHPIPDSSPLLQFGGQVRQRYLYTDDAQQTEAHLEIREDGTVGGAADQSPESLLQLKALKPGVIQILGVKTSRFLCQRPDGALYGSLHFDPEACSFRELLLEDGYNVYQSEAHGLPLHLGSGRGPARFLPLPGLPPAPPEPPGILAPQPPDVGSSDPLSMVEPSQGRSPSYA
# B5: Compound 170 [Fc(hIgG1a_191)-L7-FGF21(Cmp. 2)] (Fc fusion)
# chain: [omitted - human IgG1 Fc]GGGGGSGGGSGGGGSHPIPDSSPLLQFGGQVRQRYLYTDDAQQTEAHLEIREDGTVGGAADQSPESLLQLKALKPGVIQILGVKTSRFLCQRPDGALYGSLHFDPEACSFRELLLEDGYNVYQSEAHGLPLHLGSGRGPARFLPLPGLPPAPPEPPGILAPQPPDVGSSDPLSMVEPSQGRSPSYAS
# B6: Compound 177 [Fc(hIgG1a_191)-L6-FGF21(Cmp. 2)] (Fc fusion)
# chain: [omitted - human IgG1 Fc]GGGGSGGGGSGGGGSHPIPDSSPLLQFGGQVRQRYLYTDDAQQTEAHLEIREDGTVGGAADQSPESLLQLKALKPGVIQILGVKTSRFLCQRPDGALYGSLHFDPEACSFRELLLEDGYNVYQSEAHGLPLHLGSGRGPARFLPLPGLPPAPPEPPGILAPQPPDVGSSDPLSMVEPSQGRSPSYAS
# B7: Compound 172 [Fc(hIgG1a_191)-L12-FGF21(Cmp. 2)] (Fc fusion)
# chain: [omitted - human IgG1 Fc]PSPEPPTPEPPSPEPPTPEPPSPEPPTPEPHPIPDSSPLLQFGGQVRQRYLYTDDAQQTEAHLEIREDGTVGGAADQSPESLLQLKALKPGVIQILGVKTSRFLCQRPDGALYGSLHFDPEACSFRELLLEDGYNVYQSEAHGLPLHLGSGRGPARFLPLPGLPPAPPEPPGILAPQPPDVGSSDPLSMVEPSQGRSPSYAS
# B8: Compound 171 [Fc(hIgG1a_191)-L250-FGF21(Cmp. 2)] (Fc fusion)
# chain: [omitted - human IgG1 Fc]GGGGSGGGSGGGGGSGGGSGGGGSGGGSHPIPDSSPLLQFGGQVRQRYLYTDDAQQTEAHLEIREDGTVGGAADQSPESLLQLKALKPGVIQILGVKTSRFLCQRPDGALYGSLHFDPEACSFRELLLEDGYNVYQSEAHGLPLHLGSGRGPARFLPLPGLPPAPPEPPGILAPQPPDVGSSDPLSMVEPSQGRSPSYAS
# B9: Compound 175 [Fc(hIgG1a_191)-L252-FGF21(Cmp. 2)] (Fc fusion)
# chain: [omitted - human IgG1 Fc]ELQLEESAAEAQEGELEHPIPDSSPLLQFGGQVRQRYLYTDDAQQTEAHLEIREDGTVGGAADQSPESLLQLKALKPGVIQILGVKTSRFLCQRPDGALYGSLHFDPEACSFRELLLEDGYNVYQSEAHGLPLHLGSGRGPARFLPLPGLPPAPPEPPGILAPQPPDVGSSDPLSMVEPSQGRSPSYAS
# B10: Compound 173 [Fc(hIgG1a_191)-L251-FGF21(Cmp. 2)] (Fc fusion)
# chain: [omitted - human IgG1 Fc]PSPEPPTPEPPSPEPHPIPDSSPLLQFGGQVRQRYLYTDDAQQTEAHLEIREDGTVGGAADQSPESLLQLKALKPGVIQILGVKTSRFLCQRPDGALYGSLHFDPEACSFRELLLEDGYNVYQSEAHGLPLHLGSGRGPARFLPLPGLPPAPPEPPGILAPQPPDVGSSDPLSMVEPSQGRSPSYAS
# B11: Compound 176 [Fc(hIgG1a_190)-L253-FGF21(Cmp. 2)] (Fc fusion)
# chain: [omitted - human IgG1 Fc]SGGGGSGGGSGGGGGSHPIPDSSPLLQFGGQVRQRYLYTDDAQQTEAHLEIREDGTVGGAADQSPESLLQLKALKPGVIQILGVKTSRFLCQRPDGALYGSLHFDPEACSFRELLLEDGYNVYQSEAHGLPLHLGSGRGPARFLPLPGLPPAPPEPPGILAPQPPDVGSSDPLSMVEPSQGRSPSYAS
# Molecular target: T1, human β-klotho, stably co-expressed …
# Experiment: cell-based or functional assay
row,"Geometric Mean EC50, Elk1-luciferase assay [nM]",Binder
1,1.3,B1
2,3.3,B2
3,165,B3
4,2.5,B4
5,3.8,B5
6,1.8,B6
7,1.5,B7
8,1.7,B8
9,14.6,B9
10,1.5,B10
11,1.2,B11
